Results as given in the supplement of paper PMC7335073.
In all, about 4,100 sequences were measured (“relative CpG methylation activity (normalised to average over all NNNCGNNN flanks)”: median about 0.94, highest 2% from about 1.9 on). The list shows a part of the results.

Target: DNMT3B catalytic domain (mouse) (UniProt O88509)
Experiment: relative CpG methylation activity (normalised to average over all NNNCGNNN flanks) (relative (1 = mean)); higher = more methylation of the central CpG
Conditions: system: in vitro, murine catalytic domain; CpG state: hemimethylated substrate pool; residues: 558-859
Procedure: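 Deep enzymology: a pool of dsDNA substrates with a central CpG flanked by 10 random nucleotides on each side was methylated by the murine DNMT3A or DNMT3B catalytic domain (0.8 mM SAM, 37 °C, 60 min). Methylation was then read out by hairpin ligation, bisulfite conversion and NGS. Values are the average methylation of each NNNCGNNN context (±3 flanks; the outer flanks are random and averaged over), normalised to the overall mean, so 1 = average activity.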

UniProt O88509, sequence (O88509 558-859): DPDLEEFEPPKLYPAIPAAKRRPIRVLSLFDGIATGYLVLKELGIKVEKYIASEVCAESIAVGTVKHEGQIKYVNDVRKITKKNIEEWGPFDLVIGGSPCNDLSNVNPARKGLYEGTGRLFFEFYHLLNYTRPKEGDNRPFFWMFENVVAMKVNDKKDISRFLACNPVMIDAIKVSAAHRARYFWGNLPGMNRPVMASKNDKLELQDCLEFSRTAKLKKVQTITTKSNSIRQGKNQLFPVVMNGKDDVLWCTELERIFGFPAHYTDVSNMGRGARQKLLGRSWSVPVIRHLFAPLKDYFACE

Sequence	relative CpG methylation activity
GCACGACA	1.19
TTCCGGGG	1.5
GAACGTTT	0.687
TCCCGAGG	1.3
ATTCGTAA	0.376
ATACGCTG	1.34
GGACGAGA	1.5
TGACGGGA	1.47
ATGCGACT	1.13
TCCCGCTC	0.937
ACTCGAGT	1.2
AGACGGTA	1.16
GTGCGTAG	0.761
ACGCGCAC	0.613
CCACGCAA	0.675
ACACGGTA	1.23
AAACGATG	1.35
GGCCGTGA	0.085
GATCGGCT	1.57
ACTCGGAC	0.983
TTACGGGC	2.03
GTTCGTTT	0.253
GGGCGACG	0.372
ACACGACG	1.34
ACGCGCAA	0.333

Sequence	relative CpG methylation activity
AGCCGGGA	0.667
CAACGTCT	1.47
CGGCGAAC	0.831
CTACGAAC	1.91
TCTCGAAG	1.03
CGACGTAT	0.584
CTACGGTA	1.81
AGGCGGGT	0.507
GAACGTTG	0.862
ATTCGTTA	0.305
GCCCGGTA	1.3
AAACGAGA	1.9
TGTCGTTC	0.524
CCGCGCCA	0.71
AATCGCTA	0.608
GCGCGTTC	0.746
GACCGAAT	0.884
CAACGTCA	1.15
AACCGCGT	0.161
TCGCGTTC	0.889
GGACGGTG	1
TGGCGTGA	0.0839
ACGCGGTT	0.772
CAACGTCG	1.12
GCACGCCT	1.2

Sequence	relative CpG methylation activity
CTGCGCTT	1.4
TTCCGTAC	1.61
ATTCGCGA	0.65
TAGCGATT	0.857
GACCGCAG	0.187
GTGCGCAT	0.69
GGGCGGTG	0.446
CGCCGGCA	1.32
TGTCGCAT	0.323
GGCCGGTA	0.775
GCACGTCT	1.1
TTTCGGAA	0.871
GTGCGTAC	1.01
CAACGAAC	1.62
AACCGAAT	0.909
GTGCGTTG	0.688
CTGCGAGC	1.76
GAACGCGT	0.967
GTGCGCAC	0.939
GGTCGCAT	0.368
CCTCGTCG	0.85
CTGCGGAC	1.21
CTGCGTTA	0.743
CTTCGGCC	1.79
TTGCGCGC	0.894

Sequence	relative CpG methylation activity
TTCCGCGA	0.904
GTCCGTAG	0.397
CGACGCCT	1.15
GCTCGGGT	1.14
ATGCGAAA	1.09
GCACGAGT	1.4
AGCCGCGC	0.26
CGCCGATT	1.26
ACTCGTCG	0.617
AATCGACA	1.28
AAACGGTC	1.78
GGCCGAAA	0.914
GGGCGTGG	0.265
TCTCGTTT	0.417
GGCCGCAC	0.272
CTCCGGAA	1.23
AATCGGCA	1.74
TCTCGACG	1.31
CACCGGCC	1.34
GGCCGCTT	0.306
GGTCGACT	1.1
CAACGACG	1.33
CAACGCCT	1.59
CTGCGCTC	0.998
ACGCGTCT	0.514

Sequence	relative CpG methylation activity
AACCGTTG	0.158
GCACGGGC	1.25
CAGCGGAC	0.616
TACCGTGC	0.483
TGACGATG	1.02
TCTCGACA	1.3
TCCCGTAA	0.418
GCGCGCAG	0.323
CGACGCAG	0.407
TTACGGAT	1.5
AGGCGAAT	0.593
GCACGGTG	1.37
TTACGTGC	1.26
ATGCGTAA	0.779
AAGCGACC	0.837
CGTCGGAC	0.869
CGACGTCT	0.91
TCCCGTAT	0.542
GCTCGTGG	0.0817
GCACGGAA	1.06
CGTCGGGG	1.04
CGGCGGTC	0.675
TAACGGGG	1.53
TTGCGACT	1.25
AACCGGCT	1.12

Sequence	relative CpG methylation activity
ACGCGTAG	0.632
GGTCGCCA	0.481
TGGCGATG	0.694
CTCCGTAG	0.439
GGGCGCGC	0.249
TTGCGTAT	0.938
CACCGGGT	1.06
AGCCGTTA	0.122
TAACGGGT	1.52
CCCCGTTA	0.69
CTCCGCCC	1.37
GGTCGTTG	0.242
TGCCGCAG	0.216
AGGCGACT	0.402
AACCGTAT	0.17
AAGCGGCC	1.08
TCACGCGC	1.15
CTACGACC	1.82
TTGCGCTG	0.959
GACCGTTC	0.315
TCGCGTAA	0.737
CGGCGCTC	0.487
GATCGGAG	0.656
TTACGGCC	1.97
ATTCGCTA	1.04

Sequence	relative CpG methylation activity
GGACGTTC	0.877
TTCCGCTG	0.891
TGCCGGGT	0.798
GCTCGGGC	1.65
TCTCGGTC	1.69
GCTCGAAA	1.16
GCACGCCA	1.24
CAGCGAAG	0.716
TACCGAGA	1.42
AGTCGATG	0.995
TTTCGAAC	1.8
GCGCGGCG	1.15
ACTCGCGG	0.457
CAGCGTAA	0.639
AAACGTCG	1.07
AGTCGCAA	0.358
AATCGCGT	0.531
AATCGGTA	1.06
GTTCGTGT	0.187
GAGCGCTT	0.818
ACACGATA	1.75
TTTCGTCA	0.929
